Laboratory results reported in article PMC4637316.
No constants are given. Whether binding was seen depends on the method and setting. Binding seen in cells or lysates may run through a third protein. Some results given as binding are weak or reduced against the parent protein; the word gives no strength.

The chains behind the UniProt entries cited, without tags or fusion partners. Where a name states a change or a piece, a line headed by the entry shows the natural chain unless it says otherwise. A line that says so, or that is headed by a name, gives the form on record, which may keep a tag or linker.
UniProt P46527: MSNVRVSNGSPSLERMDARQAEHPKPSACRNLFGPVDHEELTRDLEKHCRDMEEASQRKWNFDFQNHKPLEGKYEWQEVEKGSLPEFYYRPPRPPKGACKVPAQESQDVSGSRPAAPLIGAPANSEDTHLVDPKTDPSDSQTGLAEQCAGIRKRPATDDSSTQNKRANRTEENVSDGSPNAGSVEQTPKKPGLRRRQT
Flag-p27 (VP→AA) mutant (P46527, form named): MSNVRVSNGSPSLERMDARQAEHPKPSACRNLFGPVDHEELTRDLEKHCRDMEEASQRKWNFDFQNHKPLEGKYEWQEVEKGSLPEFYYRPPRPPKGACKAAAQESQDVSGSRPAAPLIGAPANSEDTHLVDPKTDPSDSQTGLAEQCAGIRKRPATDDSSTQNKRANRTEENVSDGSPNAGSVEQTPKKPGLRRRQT
UniProt Q8NHY2: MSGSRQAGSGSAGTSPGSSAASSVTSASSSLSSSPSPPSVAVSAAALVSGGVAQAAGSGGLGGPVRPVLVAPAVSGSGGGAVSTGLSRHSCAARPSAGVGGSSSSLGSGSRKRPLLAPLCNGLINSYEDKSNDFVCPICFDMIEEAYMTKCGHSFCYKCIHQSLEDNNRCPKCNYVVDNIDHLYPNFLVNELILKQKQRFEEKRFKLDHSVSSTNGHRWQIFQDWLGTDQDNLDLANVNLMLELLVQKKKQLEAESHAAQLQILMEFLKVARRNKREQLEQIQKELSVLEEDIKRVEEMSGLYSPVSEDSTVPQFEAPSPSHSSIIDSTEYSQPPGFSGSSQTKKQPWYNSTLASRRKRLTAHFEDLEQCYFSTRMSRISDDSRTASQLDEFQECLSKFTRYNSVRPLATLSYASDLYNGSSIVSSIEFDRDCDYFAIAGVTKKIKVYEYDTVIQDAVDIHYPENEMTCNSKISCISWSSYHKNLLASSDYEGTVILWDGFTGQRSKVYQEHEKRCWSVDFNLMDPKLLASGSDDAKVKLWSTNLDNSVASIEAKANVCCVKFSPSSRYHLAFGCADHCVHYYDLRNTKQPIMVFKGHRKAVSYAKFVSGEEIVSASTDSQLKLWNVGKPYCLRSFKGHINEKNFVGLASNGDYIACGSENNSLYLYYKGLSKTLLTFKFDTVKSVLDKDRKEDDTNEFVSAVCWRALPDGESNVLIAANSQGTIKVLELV

Experiments:
[1] = biological target: p27^Kip1 (endogenous in HeLa) (human (endogenous in HeLa)) (UniProt P46527); experiment: co-IP; Flag-COP1 constructs transfected into HeLa cells treated with MG132; IP anti-p27, IB anti-Flag
[2] = biological target: Constitutive photomorphogenic 1 (COP1) (human (endogenous in U2OS)) (UniProt Q8NHY2); experiment: co-IP; endogenous proteins in U2OS lysates (asynchronous, and synchronized by thymidine-nocodazole block and release); IP anti-p27 with IB anti-COP1, IP anti-COP1 with IB anti-p27
GFP-COP1 wild-type = GFP-COP1 wild-type (UniProt Q8NHY2); experiment: co-IP; 293T cells transfected with the indicated plasmids and treated with MG132; IP anti-GFP, IB anti-Flag

Row | Substance | binding [1] | binding (GFP-COP1 wild-type) | also measured
1 | Flag-COP1 N-terminal (aa 1-334) (from UniProt Q8NHY2 1-334) (domain or fragment) | binds |  | 
2 | Flag-COP1 C-terminal (aa 401-731) (from UniProt Q8NHY2 401-731) (domain or fragment) | no binding |  | 
3 | p27^Kip1 (from UniProt P46527 1-198) |  |  | binding [2]: binds
4 | Flag-p27 wt (from UniProt P46527 1-198) |  | binds | 
5 | Flag-p27 (VP→AA) mutant (from UniProt P46527 1-198) |  | no binding | 
